Publication PMC4336329 (PLoS ONE, 2015)
Among all 310,000 compounds or so, about 14,000 (4.5%) showed an effect of 50% or more. Effects have a minus sign here. The list shows a part of the results.

target: human ether-à-go-go-related gene (hERG) potassium channel (human, UniProt Q12809); test: primary screen, population patch clamp on CHO cells stably expressing hERG
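Further: peak tail current of the secondary pulse compared with the same well before compound.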

Chain of human ether-à-go-go-related gene (hERG) potassium channel (Q12809 whole entry, looked up): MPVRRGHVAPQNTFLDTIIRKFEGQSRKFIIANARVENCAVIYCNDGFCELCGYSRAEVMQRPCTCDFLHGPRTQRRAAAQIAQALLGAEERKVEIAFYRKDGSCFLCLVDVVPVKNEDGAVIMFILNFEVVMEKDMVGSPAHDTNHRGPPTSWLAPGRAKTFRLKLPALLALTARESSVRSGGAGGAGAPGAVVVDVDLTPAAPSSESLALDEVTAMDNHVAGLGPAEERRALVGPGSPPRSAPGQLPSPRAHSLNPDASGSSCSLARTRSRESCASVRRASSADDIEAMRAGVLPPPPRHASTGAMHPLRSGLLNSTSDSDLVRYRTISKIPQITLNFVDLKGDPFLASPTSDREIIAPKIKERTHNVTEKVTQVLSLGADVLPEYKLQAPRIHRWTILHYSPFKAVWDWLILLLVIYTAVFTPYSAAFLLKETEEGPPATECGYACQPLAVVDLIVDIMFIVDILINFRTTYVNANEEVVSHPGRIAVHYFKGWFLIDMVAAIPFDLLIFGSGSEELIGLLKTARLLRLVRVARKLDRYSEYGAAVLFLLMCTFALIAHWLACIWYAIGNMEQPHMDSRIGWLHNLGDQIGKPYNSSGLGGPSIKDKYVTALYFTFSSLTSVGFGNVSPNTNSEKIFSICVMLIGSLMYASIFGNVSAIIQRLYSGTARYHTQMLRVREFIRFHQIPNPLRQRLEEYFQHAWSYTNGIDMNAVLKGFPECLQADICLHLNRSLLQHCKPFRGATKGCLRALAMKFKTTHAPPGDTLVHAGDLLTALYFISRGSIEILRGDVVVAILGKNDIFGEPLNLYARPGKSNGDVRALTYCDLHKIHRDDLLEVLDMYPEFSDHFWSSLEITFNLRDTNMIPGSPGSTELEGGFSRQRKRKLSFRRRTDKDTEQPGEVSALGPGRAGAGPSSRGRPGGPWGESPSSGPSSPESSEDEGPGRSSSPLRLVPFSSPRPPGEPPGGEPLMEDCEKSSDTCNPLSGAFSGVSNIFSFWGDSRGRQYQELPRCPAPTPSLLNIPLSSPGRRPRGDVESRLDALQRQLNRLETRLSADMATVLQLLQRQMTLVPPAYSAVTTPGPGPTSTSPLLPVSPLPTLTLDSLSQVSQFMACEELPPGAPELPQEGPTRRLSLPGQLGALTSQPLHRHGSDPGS

Structure (SMILES) | hERG current change (%, negative = inhibition) at 10uM [%]
CCN(CC)CCNC(=O)c1ccc(NC(=O)c2cccc(S(=O)(=O)[N-]c3ccc(C)cc3)c2)cc1.[K+] | -8.36
CC(C)(C)C(=O)CN1C(=O)NC(C)(Cc2ccc3c(c2)OCO3)C1=O (stereo not drawn) | 6.06
CC(C)(C)NC(=O)CN(c1cccc([N+](=O)[O-])c1)S(=O)(=O)c1ccccc1 | -11.5
COc1cc(/C=C2/NC(=O)NC2=O)cc(Br)c1OCc1ccc(C(=O)O)cc1 | 23.9
NS(=O)(=O)c1ccc(NC(=O)CCC(=O)c2ccc(Cl)s2)cc1 | 13.6
CCOc1cc(C(=O)NCCN2C(=O)S/C(=C\c3cccnc3)C2=O)cc(OCC)c1OCC | -1.8
O=C(Cc1c(F)cccc1Cl)N1CCN(S(=O)(=O)c2cccs2)CC1 | 9.59
COc1ccc(C(=O)NCC(=O)N2CCN(c3ccccc3)CC2)cc1 | -0.333
O=C(COC(=O)c1ccccc1C(=O)N1CCN(c2ccccc2)CC1)NCc1ccccc1 | -58
N#Cc1c(NC(=O)CN2CCN(S(=O)(=O)c3ccc4c(c3)OCCO4)CC2)sc2c1CCC2 | 7.11
COc1ccc(NC(=S)Nc2cccc3cnccc23)cc1 | -21.2
CCCC(=O)Nc1nc2ccc(NC(=O)c3cccnc3)cc2s1 | -1.66
O=C(NNC(=O)c1ccccc1O)c1ccc(S(=O)(=O)Nc2ccccc2)cc1 | 6.6
O=C(COCC(=O)Nc1cccc(C(F)(F)F)c1)Nc1cccc(C(F)(F)F)c1 | 38.3
Cc1ccc(C(=O)Nc2nnc(-c3ccncc3)s2)o1 | 3.9
Cc1onc(-c2ccccc2Cl)c1C(=O)N1CCc2ccccc2C1 | -18.2
Cc1cc(F)ccc1S(=O)(=O)Nc1ccccc1C(=O)NCc1ccccn1 | -7.43
O=C(C1CCCO1)N1CCN(C(=S)Nc2cccc(Cl)c2)CC1 (stereo not drawn) | -8.74
CCc1ccc(C(=O)N/N=C/c2ccc(Cl)cc2Cl)nc1 | -5.86
O=C(COC(=O)c1ccccc1)Nc1ccc(Cl)cn1 | 18
CCOC(=O)CSc1nc(C)c2cccc(C)c2n1 | -3.05
Cc1ccc(NC(=O)[C@@H]2CCCN2S(=O)(=O)c2ccccc2C(F)(F)F)cc1S(=O)(=O)N1CCOCC1 | -21.4

Structure (SMILES) | hERG current change (%, negative = inhibition) at 10uM [%]
Clc1ccc(Cn2ncc3c(N4CCCCC4)ncnc32)cc1 | -14.4
CCS(=O)(=O)C1=NSC2=NC(=O)/C(=C\c3ccc(OC(=O)c4ccco4)cc3)C(=N)N21 | 15
COc1cc2c(=O)n(CCC(=O)NCC3CCCO3)c(=O)n(CC(=O)Nc3ccc(F)cc3)c2cc1OC (stereo not drawn) | -16.1
COc1ccc(N2CCN(c3cc(=O)n(Cc4ccc(F)cc4)c(=O)[nH]3)CC2)cc1 | -26
Cc1ccc(NC(C)c2cc(Cl)ccc2O)cc1 (stereo not drawn) | 18.5
Cc1cc(C)n(C(=O)c2cccc(S(=O)(=O)N3CCCC3)c2)n1 | 6.46
O=C(CC1NCCNC1=O)Nc1cc(Cl)cc(Cl)c1 (stereo not drawn) | 6.48
COc1ccc(C(=O)Oc2coc(CSc3nnc(NC(=O)c4cccs4)s3)cc2=O)cc1 | 24.2
Cc1cc(NC(=O)CSc2nnc(-c3ccc(O)cc3)o2)no1 | -5.18
CCCc1nc2n[nH]c(N)c2c2c1CCCC2 | 4.12
CCOC(=O)c1c(C)c(C(=O)NCc2ccc3c(c2)OCO3)c(C)n1C | -8.33
Cc1cc(C)cc(OCC(=O)N/N=C/c2ccccn2)c1 | -15.9
COc1ccc(C(=O)N2CCCC(C(=O)O)C2)c2ccccc12 (stereo not drawn) | 23.5
COc1cc(C(=O)NCc2cc3ccccc3n2C)cc(OC)c1OC | 10.5
CCCc1cc(C(=O)N2CCCN(C)CC2)cs1 | 0.455
COc1ccc(CNC(=O)COC(=O)CC2CC3CCC2C3)cc1OC (stereo not drawn) | -4.38
Cc1ccc(Nc2c(-c3ccccc3O)nc3cnccn23)cc1 | 3.86
Cc1ccc2nc(NCc3ccccc3)c(C=NCc3cccnc3)c(=O)n2c1 | 3.39
CC(c1ccccc1F)n1cc(C(=O)Nc2ccc3nc[nH]c3c2)nn1 (stereo not drawn) | 4.74
CCOc1ccc(N(Cc2nnc3n2CCCCC3)C(=O)Nc2cccc(C)c2)cc1 | -24.2
Cc1nc2cc(-c3cccc(F)c3)nn2c(C)c1CCC(=O)N1CCC2(CC1)OCCO2 | -37.5
CCCN(C(=O)c1cc(S(=O)(=O)N2CCCCCC2)ccc1OC)C1CCS(=O)(=O)C1 (stereo not drawn) | -15

Structure (SMILES) | hERG current change (%, negative = inhibition) at 10uM [%]
Clc1ccc2nc(N3CCN(c4ccccc4)CC3)sc2c1 | 12.7
O=C(NNC(=S)Nc1ccccc1)C1CC1 | -6.92
Cc1ccc(C)c(N(C)C(=O)c2coc(=O)c3ccccc23)c1 | -9.29
COc1ccc(N2CCC(CNC(=O)Nc3cccc(OC)c3)C2)cc1 (stereo not drawn) | -15.7
CN(C)/C=C(\C#N)C(=O)c1cccnc1Oc1cccc(F)c1 | -2.68
O=C(Cn1cnc2ccccc2c1=O)NCCC(=O)N1CCN(Cc2ccccc2)CC1 | 11.2
CN(C)C1(CNC(=O)C2CCN(S(=O)(=O)c3ccccc3C(F)(F)F)CC2)CCCCC1 | -29.8
CCSc1ccccc1C(=O)Nc1ccc2c(c1)OCO2 | 59
O=C(c1cc2ccccc2cc1O)N1CCCC1 | 22.4
Cc1ccc(SCCNC(=O)CN(c2ccc3c(c2)OCO3)S(C)(=O)=O)cc1 | -20.4
CC1CCN(C(=O)CSc2nc3[nH]ncc3c(=O)[nH]2)CC1 | 11.3
Cc1ccc(/C=N/NC(=O)C2CCN(Cc3ccc(F)cc3Cl)CC2)o1 | -34.9
O=C(c1ccc(NS(=O)(=O)c2cccc(C(F)(F)F)c2)cc1)N1CCCC1 | -41.8
Cc1cc(=O)[nH]c(-c2ccc(C(F)(F)F)cc2)n1 | 3.13
Cc1c(NC(C)C)c(=O)n(-c2ccccc2)n1C.Cl | -1.21
Cc1cccc(C(=O)NNC(=O)C23CC4CC(CC(C4)C2)C3)c1O | 20.6
COc1ccc(/C=C(\NC(=O)c2ccc([N+](=O)[O-])cc2)C(=O)NCCN2CCOCC2)cc1 | -70.7
CCN1c2ccccc2-c2nc3ccccc3n2C1c1cccnc1 (stereo not drawn) | -24.8
COc1ccc(C2=NOC(C(=O)Nc3c(C)n(C)n(-c4ccccc4)c3=O)C2)cc1OC (stereo not drawn) | 14.2
COc1cc(OC)c(C(=O)OCC(=O)N(Cc2ccccc2)C(C)(C)C)cc1OC | 2.44
CCN(CC)c1nc2c(c(=O)[nH]c(=O)n2C)n1CCOc1ccccc1 | 10.3
COCC(C)N=C1NN=C(c2c[nH]c3ccccc23)CS1 (stereo not drawn) | 4

Structure (SMILES) | hERG current change (%, negative = inhibition) at 10uM [%]
Cc1ccc(C(=O)O/N=C/c2c(Cl)n(C)c3ccccc23)cc1 | 16.2
Cc1ccc(NC(=O)C(Cc2ccccc2)NC(=O)OCc2ccccc2)cc1C (stereo not drawn) | -5.74
CCN1CCN(Cc2ccc(NC(=O)Nc3ccccc3Cl)cc2)CC1 | -22.8
O=C(NCC(=O)N(c1ccccc1)C(C(=O)NC1CCCCC1)c1ccncc1)c1ccco1 (stereo not drawn) | 5.92
CCC(Sc1nc2cc(OC)c(OC)cc2c(=O)n1CCc1ccc(OC)c(OC)c1)C(=O)NCCOC (stereo not drawn) | 17.6
Cc1cc(C)c(C(=O)OCCNC(=O)c2cccnc2)cc1C | -17.3
CC1(c2nnc(-c3ccc(Cl)cc3)o2)CC(c2cccc(Cl)c2)=NO1 (stereo not drawn) | 13.7
COc1ccccc1NC(=O)CSc1sc2c(O)cc(=O)[nH]c2c1C#N | -4.86
O=c1c2ccccc2nc(-c2ccco2)n1-c1ccc(Br)cc1 | 4.85
O=C1/C(=C\c2cc([N+](=O)[O-])ccc2O)SC(=S)N1Cc1ccc(Cl)cc1 | 28.8
Cc1cc(C)c2cc(C)c3nnc(SCC(=O)NCc4ccc5c(c4)OCO5)n3c2c1 | -22.5
Cc1nc2c3ccccc3nc(NNC(=O)CCC(=O)NC3CCCC3)n2n1 | -39.8
CC1=[N+](C)N(c2ccccc2)C(=O)C1N=Cc1c(Cl)cccc1Cl (stereo not drawn) | -38.4
C=CCNC(=O)c1onc(CSc2ccc(F)c(F)c2)c1C(=O)O | 22.4
COc1ccc(NC(=O)N2CCc3cc(OC)c(OC)cc3C2)cc1 | 8.36
CCCCN1CC[C@H]2C=CC[C@@H](C(=O)N3CCOCC3)[C@H]2C1=O | 22.7
CCCCCCN1C2=NCCCN2c2ccccc21.Cl | -78.3
Cc1cccc(S(=O)(=O)c2c(C)cc(C)[nH]c2=O)c1 | 15.3
CS(=O)(=O)N(CC(=O)NC1CCCCCC1)Cc1ccccc1 | -1.26
CCCCOc1ccccc1/C=N/NC(=O)CC#N | 13.1
Cc1cccc(NC(=O)COC(=O)c2ccccc2SCC(=O)N2CCCC2)c1 | -7.14
